Source: article PMC11811815, “ISG15‐Dependent Stabilisation of USP18 Is Necessary but Not Sufficient to Regulate Type I Interferon Signalling in Humans” (European Journal of Immunology, 2025)

T1: GST-tagged human USP18 (49-372 aa) (human, UniProt Q9UMW8-1 49-372)
T1 construct: human USP18, residues 49-372; also called hUSP18; GST-USP18; source: High-Five cells, baculovirus, purified (glutathione resin, ion exchange, gel filtration); not shown: GST, N-terminal, kept
T1 sequence (looked up): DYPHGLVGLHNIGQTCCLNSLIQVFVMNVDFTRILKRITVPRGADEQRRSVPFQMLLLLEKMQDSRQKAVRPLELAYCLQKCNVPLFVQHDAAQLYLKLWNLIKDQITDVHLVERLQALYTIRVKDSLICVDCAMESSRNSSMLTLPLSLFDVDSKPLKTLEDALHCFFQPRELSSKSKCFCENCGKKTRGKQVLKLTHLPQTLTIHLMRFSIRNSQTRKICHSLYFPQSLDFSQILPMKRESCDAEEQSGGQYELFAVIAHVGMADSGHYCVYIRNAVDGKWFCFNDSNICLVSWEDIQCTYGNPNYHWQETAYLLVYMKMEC


Biological target: T1, GST-tagged human USP18 (49-372 aa)
Test: fluorescence polarisation; BODIPY-labelled ISG15 at 100 nM final; GST-USP18 from 10 µM final in 1:3 serial dilutions; 30 min incubation; one site binding model; three independent reactions
Conditions: both partners purified

Binder | Kd
recombinant human ISG15 wild-type (GG), N-terminal cysteine, C78S, BODIPY-labelled (natural protein, maleimide BODIPY fluorophore on the introduced N-terminal cysteine, N-terminal cysteine introduced before the start methionine, for labelling; human ISG15 from the start methionine, ending with the C-terminal di-Gly motif (GG); Cys78 mutated to serine; The start methionine is kept in the construct; also called ISG15.GG; Wild-type ISG15 (GG); source: recombinantly expressed (pCoofy3) and purified as previously described [28]) not shown | 370 nM
recombinant human ISG15 variant ΔGG, N-terminal cysteine, C78S, BODIPY-labelled (natural protein, maleimide BODIPY fluorophore on the introduced N-terminal cysteine, N-terminal cysteine introduced before the start methionine, for labelling; human ISG15 from the start methionine, C-terminal di-Gly deleted; Cys78 mutated to serine; also called ISG15.ΔGG; source: recombinantly expressed (pCoofy3) and purified as previously described [28]) not shown | 330 nM
